Here are results for 14 molecules from publication PMC12136788.

The other results are listed elsewhere or left out.

T1: UNK ZnF1-3 (human, UniProt Q9C0B0 31-174)
T1 sequence: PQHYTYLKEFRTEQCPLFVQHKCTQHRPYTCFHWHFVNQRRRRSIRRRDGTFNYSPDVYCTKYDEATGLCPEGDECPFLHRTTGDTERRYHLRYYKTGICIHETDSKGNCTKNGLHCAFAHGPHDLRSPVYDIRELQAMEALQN

B1: chr15:103023306:103023307:-_ENSMUSG00000009575_ENSMUST00000118152|mus_mus|FALSE|FALSE (ssRNA)
RNA: GGGAGUUCUACAGUCCGACGAUCAGAAACUCACCAAGGUCACUAAGUACUUCCAAACUUGGAAGUAGCUCAGUGAGGGCUAAAAAAACUUCGACUGAAGGUAUCCUCCACAGGCAAUCCUAAAGGAGUUGAUCAGCUCUGAUCCAACAGAGGAUUGAGCAUCA
B2: chr6:71460543:71460544:+_ENSMUSG00000052656_ENSMUST00000064637|mus_mus|motif|central (ssRNA)
RNA: GGGAGUUCUACAGUCCGACGAUCCAACCAAAUAAAUUCUGUCAUCAACAUCAGCAUAAUGUGUAUUUCCUGUCACUGCACGGACAUUAAACUAAACUUCAAACCACAAAAACAUUGUGACUAACAUUAAAAAGGCAAGCUGUACAACAGAGGAUUGAGCAUCA
B3: 176755942_176756202_1265_CDS_ENSG00000177565_ENST00000430069|human|control|control (ssRNA)
RNA: GGGAGUUCUACAGUCCGACGAUCGAUAGCAUUUACUUCAUUCGUAUGUCCUUGGAAUGUUUUAAUAGGUCUGUCUUGUCCUAAUUUACAGACAUGAAUGCACAUAUCUGUACUACAAGAAGCAAAGGUGUUGUUGCUCUGCCACAACAGAGGAUUGAGCAUCA
B4: 86378530_86380689_1287_CDS_ENSG00000132305_ENST00000449247|human|control|control (ssRNA)
RNA: GGGAGUUCUACAGUCCGACGAUCGAUGUGCUGCUUUUCGGUGGCCUUCUGUUCUGCCAGCUCUCUGUUCAGCUGAUCAAUACGACGAUGUGCAUGAGCAAUGAGGGAGUUCAGAUCAUCAGUAGAGAGCUUGUCAGCUAAGUCCAACAGAGGAUUGAGCAUCA
B5: chr8:101937209:101937210:-_ENSG00000164924_ENST00000353245|hu_mus|FALSE|FALSE (ssRNA)
RNA: GGGAGUUCUACAGUCCGACGAUCAUCACCAGCAGCAACCUCGGCCAAGUAACGGUAGUAGUCACCCUUCAUUUUCAAAUAGAAGACUUUGCUUUCUGGUUGCGAAGCAUUGGGGAUCAAGAACUUUUCCAAAAGAGACAGUACCAACAGAGGAUUGAGCAUCA
B6: chr5:89070800:89070801:+_ENSMUSG00000029291_ENSMUST00000031229|mus_mus|FALSE|FALSE (ssRNA)
RNA: GGGAGUUCUACAGUCCGACGAUCUAAAGGCUCAUGUAUAUAAAAGCCUGCCUCCCCAAAUCAAAAAUAGUUCUUUUUUAAAAUCAAAGUAUUUAUAGAAUUAUUUACAGUGUAGAGCCUAGAAAGGGUUGCAUCUGUGGUCACCAACAGAGGAUUGAGCAUCA
B7: chr10:88199856:88199857:+_ENSMUSG00000060904_ENSMUST00000116234|mus_hu|motif|central (ssRNA)
RNA: GGGAGUUCUACAGUCCGACGAUCUGCAUCUGUGUUUGAAUAGUAACAUCUCCAGUAUGGCCUGAUACUUGUCUGUCCUCCGGAAUCCCAGACUUGGAAUUUAAGGUUUUUGUACGUCACCGUCUCUACAUUAAAUCCAAUGGUCAACAGAGGAUUGAGCAUCA
B8: chr2:5814250:5814251:-_ENSMUSG00000025816_ENSMUST00000102981|mus_hu|mus_mus_mus_hu_True|18_38 (ssRNA)
RNA: GGGAGUUCUACAGUCCGACGAUCUUCCUUUCCGGUUUCUGAAUUUCUGGUAGAACUGCACAGAAUGGUUUGAUAACUUCUAAAAAUUUGAUGCCCAUGGCGGCGGCUGGGGAGGCCCGGCGGGCACCCGCGGCCUCGGCGCUGCAACAGAGGAUUGAGCAUCA
B9: chr11:22646265:22646266:-_ENSG00000183161_ENST00000327470|hu_hu|FALSE|FALSE (ssRNA)
RNA: GGGAGUUCUACAGUCCGACGAUCCAGCAUUGCCUAUACAGAACUGAGGCCUGCGCUGAGACCCAAAACUUGUCUUUUCCUAAAUGCACCACUACGAAGAGCUAAUAAGAGGUCUGUCCAGAUGCUAAGACCAGGUACUUCAAACAACAGAGGAUUGAGCAUCA
B10: chr16:45382771:45382772:-_ENSMUSG00000022661_ENSMUST00000163230|mus_mus|mus_mus_mus_hu_True|48_88 (ssRNA)
RNA: GGGAGUUCUACAGUCCGACGAUCCUGGGUCAUGUUAUAAGACAAAUGGAUAGGGAGGGCAUGCUUCUCAAAAAAUGUGAGCUAUUGACUAAGACUAACAAUAUUUAUCUAGCUAUAAAAAUAAGUUAAAUGAAUAAGUUAAGACAACAGAGGAUUGAGCAUCA
B11: chr4:124533079:124533080:-_ENSMUSG00000042763_ENSMUST00000064444|mus_mus|FALSE|FALSE (ssRNA)
RNA: GGGAGUUCUACAGUCCGACGAUCUCCACUGUGCUAAAGCUAGCCAGCCUAGCCAUACACUGAUGUGUCCCAGACUGACCUAGUGGUCAGCACUUAGGAGAACUGGAAGAGGAAUGUGUACUGGCAUACACCAUUUCAUACUUACAACAGAGGAUUGAGCAUCA
B12: chr10:33190432:33190433:-_ENSG00000150093_ENST00000302278|hu_mus|hu_hu_hu_mus_True|58_108 (ssRNA)
RNA: GGGAGUUCUACAGUCCGACGAUCUACAUUUUCAAAACCUGCAUGUGAAUAAAACCCUGGCCACAGAGCCCCAAAACUACCUAACUGUGACUAAGAUGCUGCUGCUGUGAGCUUGGUGUUGCAAAAUCCGCCUGAGUAGGAUUCCAACAGAGGAUUGAGCAUCA
B13: 44151637_44155220_1000_CDS_ENSMUSG00000035696_ENSMUST00000045793|mouse|control|control (ssRNA)
RNA: GGGAGUUCUACAGUCCGACGAUCAGUAAAACUGCCUACUUGAAGAUGUUCUCCUAAGAGCUCCACUUCAUUUUCUAUCCUCUGCAGAGGCGAUCGUGACUGCUGUGUUUGGAAAGGGACAAAUUGGCCUGGUGGUGGCAAGUGCAACAGAGGAUUGAGCAUCA
B14: chr1:109605286:109605287:-_ENSG00000197780_ENST00000461096|hu_mus|hu_hu_hu_mus_True|28_78 (ssRNA)
RNA: GGGAGUUCUACAGUCCGACGAUCAAGUUUCAGAGUAACAUUCAGUAACCUCUUUAACAAUUGUAAUCCUUAUUAUAAGCUAAGCAGAAUAAUAAUUUAAUACCGUAAGUAAAUACAACACAAAGCCUGAACCGCGAAAAUGGUCAACAGAGGAUUGAGCAUCA

The target of this assay is T1, UNK ZnF1-3. The experiment in a line: nsRBNS (natural sequence RNA bind-n-seq); RBNS binding buffer (assumed for nsRBNS): 25 mM Tris pH 7.5, 150 mM KCl, 3 mM MgCl2, 0.01% Triton X-100, 500 ug/ml BSA, 20 U/ml SUPERase-In, 4 C; UNK is unkempt and MSI1 is Musashi-1; names of the RNAs are library labels; protein concentration not given here; high values mean tight binding.
B1 gave a binding signal of 1.38 enrichment R.
The value for B2 was 1.18 enrichment R; that for B3 was 0.937 enrichment R; that for B4 was 0.89 enrichment R.
In turn, B5 registered a binding signal of 1.26 enrichment R.
B6 gave a binding signal of 2.25 enrichment R.
On to B7, for which the binding signal turned out to be 1.08 enrichment R.
Molecule B8 displayed a binding signal of 0.82 enrichment R.
The value for B9 was 1.35 enrichment R; that for B10 was 2.26 enrichment R; that for B11 was 0.545 enrichment R.
Take B12: the binding signal is 1.36 enrichment R.
As for B13, the figure is 1.32 enrichment R.
The value for B14 was 1.03 enrichment R.
